Test results published in article PMC10880585 (ACS infectious diseases, 2023).
pIC50: −log10 of the molar value.

Biological target: T1, P. falciparum DXR (Plasmodium falciparum, UniProt O96693)
T1 sequence (O96693 73-488): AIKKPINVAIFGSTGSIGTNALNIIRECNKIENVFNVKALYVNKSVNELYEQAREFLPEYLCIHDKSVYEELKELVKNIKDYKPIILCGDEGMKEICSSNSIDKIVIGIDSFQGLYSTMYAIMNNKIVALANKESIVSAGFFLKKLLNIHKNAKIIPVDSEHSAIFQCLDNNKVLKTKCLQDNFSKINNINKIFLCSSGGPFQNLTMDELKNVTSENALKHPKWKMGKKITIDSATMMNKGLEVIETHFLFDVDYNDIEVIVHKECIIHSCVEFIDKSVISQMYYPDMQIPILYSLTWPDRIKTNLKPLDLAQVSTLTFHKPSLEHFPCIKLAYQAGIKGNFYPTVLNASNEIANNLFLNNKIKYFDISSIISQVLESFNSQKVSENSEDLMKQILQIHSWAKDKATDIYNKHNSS
Details: read-out: Pf DXR IC50; 37 °C, 144 μM DXP, 150 μM NADPH

Compound	pIC50
N.N.O=C(c1ccccc1)N(O)C/C=C/P(=O)(O)O [compound 11a, Diammonium [(1E)-3-(N-Hydroxy-1-phenylformamido)-prop-1-en-1-yl]phosphonate]	6.97
CC(=O)N(O)CCCP(=O)(O)O [compound 2, FR-900098, reference compound]	7.66
